By IC50 is meant the dose at which the fit gives 50% viability; where the fit passes the top or lowest dose, that dose stands as a limit. AUC, from the same fit, is the share of area under the viability curve across the 256-fold dose range; values near 1 show little effect. For part of these data: The top dose, if marked as inferred, was derived from the fitted curves, not read from the paper. For part of these data: Drugs with an entry number were screened twice under separate entries, and the two screens often disagree.
How the values were obtained:
Assay in all cases: Viability of human cancer cell lines after 72 h of drug (GDSC screen)
Crizotinib = compound: C[C@@H](Oc1cc(-c2cnn(C3CCNCC3)c2)cnc1N)c1c(Cl)ccc(F)c1Cl [Crizotinib]; settings: top dose 2 µM
Description: (§1)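 Human cancer cell lines in 384-well plates, medium with 10% serum, drug for 72 h over a 256-fold dose range (nine 2-fold or five 4-fold steps up to the top dose). Adherent lines were fixed and stained with the nucleic acid dye Syto60, suspension lines read with resazurin; signal relative to control wells, capped at 0 and 100%. One two-parameter sigmoid per drug and line, fitted in a mixed model over all curves with the slope shared within a line.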

AKT inhibitor VIII = compound: O=c1[nH]c2ccccc2n1C1CCN(Cc2ccc(-c3[nH]c4cc5ncnc5cc4nc3-c3ccccc3)cc2)CC1 [AKT inhibitor VIII]; settings: top dose inferred
Description: as §1

AICAR = compound: NC(=O)c1ncn([C@@H]2O[C@H](CO)[C@@H](O)[C@H]2O)c1N [AICAR]; settings: top dose 2000 µM; top dose inferred
Description: as §1

[1] = top dose 2.56 µM, screen: GDSC drug entry 171
[2] = top dose 10.24 µM, screen: GDSC drug entry 228

| Cell Line | AUC (Crizotinib) | IC50 (Crizotinib) | AUC (AKT inhibitor VIII; [1]) | IC50 (AKT inhibitor VIII; [1]) | AUC (AKT inhibitor VIII; [2]) | IC50 (AKT inhibitor VIII; [2]) | AUC (AICAR) | IC50 (AICAR) |
| --- | --- | --- | --- | --- | --- | --- | --- | --- |
| Farage (B-cell lymphoma, suspension) | 0.992 | > 2 µM | 0.974 | > 2.56 µM | 0.65 | 1.53 µM | 0.761 | 595 µM |
| GI-1 (glioma, adherent) | 0.888 | > 2 µM | 0.904 | > 2.56 µM | 0.927 | > 10.2 µM | 0.977 | > 2000 µM |
| GOTO (neuroblastoma, adherent) | 0.96 | > 2 µM | 0.984 | > 2.56 µM | 0.937 | > 10.2 µM | 0.885 | > 2000 µM |
| GR-ST (lymphoblastic leukaemia, suspension) | 0.93 | > 2 µM | 0.972 | > 2.56 µM | 0.774 | 4.87 µM | 0.694 | 495 µM |
| GT3TKB (stomach, adherent) | 0.99 | > 2 µM | 0.974 | > 2.56 µM | 0.99 | > 10.2 µM | 0.934 | > 2000 µM |
| HA7-RCC (kidney, adherent) | 0.98 | > 2 µM | 0.886 | > 2.56 µM | 0.905 | > 10.2 µM | 0.985 | > 2000 µM |
| HC-1 (hairy cell leukaemia, suspension) | 0.96 | > 2 µM | 0.956 | > 2.56 µM | 0.653 | 1.67 µM | 0.825 | 1130 µM |
| HSC-39 (stomach, suspension) | 0.99 | > 2 µM | 0.991 | > 2.56 µM | 0.8 | 4.18 µM | 0.764 | 634 µM |
| IMR-5 (neuroblastoma, adherent) | 0.992 | > 2 µM | 0.981 | > 2.56 µM | 0.902 | 9.66 µM | 0.846 | 1130 µM |
| IST-SL2 (small cell lung carcinoma, suspension) | 0.956 | > 2 µM | 0.93 | > 2.56 µM | 0.865 | 8.94 µM | 0.847 | 1450 µM |
| JURL-MK1 (chronic myeloid leukaemia, suspension) | 0.93 | > 2 µM | 0.985 | > 2.56 µM | 0.798 | 4.84 µM | 0.584 | 212 µM |
| KCL-22 (chronic myeloid leukaemia, suspension) | 0.879 | 1.49 µM | 0.98 | > 2.56 µM | 0.705 | 2.16 µM | 0.628 | 264 µM |
| KINGS-1 (glioma, adherent) | 0.638 | 0.348 µM | 0.935 | > 2.56 µM | 0.951 | > 10.2 µM | 0.907 | > 2000 µM |
| KS-1 (glioma, adherent) | 0.863 | > 2 µM | 0.948 | > 2.56 µM | 0.917 | > 10.2 µM | 0.816 | 1470 µM |
| KY821 (leukaemia, suspension) | 0.982 | > 2 µM | 0.992 | > 2.56 µM | 0.952 | > 10.2 µM | 0.774 | 685 µM |
| KYM-1 (rhabdomyosarcoma, adherent) | 0.973 | > 2 µM | 0.984 | > 2.56 µM | 0.991 | > 10.2 µM | 0.854 | 1240 µM |
| LAMA-84 (chronic myeloid leukaemia, suspension) | 0.757 | 0.696 µM | 0.976 | > 2.56 µM | 0.748 | 3.34 µM | 0.604 | 242 µM |
| LB647-SCLC (small cell lung carcinoma, semi-adherent) | 0.98 | > 2 µM | 0.979 | > 2.56 µM | 0.924 | > 10.2 µM | 0.897 | > 2000 µM |
| LB771-HNC (head and neck, adherent) | 0.982 | > 2 µM | 0.906 | > 2.56 µM | 0.893 | > 10.2 µM | 0.919 | > 2000 µM |
| LB1047-RCC (kidney, adherent) | 0.97 | > 2 µM | 0.917 | > 2.56 µM | 0.921 | > 10.2 µM | 0.929 | > 2000 µM |
| LB2241-RCC (kidney, adherent) | 0.982 | > 2 µM | 0.974 | > 2.56 µM | 0.982 | > 10.2 µM | 0.846 | 1720 µM |
| LU-139 (small cell lung carcinoma, suspension) | 0.98 | > 2 µM | 0.982 | > 2.56 µM | 0.746 | 4.04 µM | 0.753 | 838 µM |
| MC116 (B-cell lymphoma, suspension) | 0.992 | > 2 µM | 0.987 | > 2.56 µM | 0.731 | 2.3 µM | 0.987 | > 2000 µM |
| MEG-01 (chronic myeloid leukaemia, suspension) | 0.785 | 0.801 µM | 0.978 | > 2.56 µM | 0.784 | 4.09 µM | 0.768 | 707 µM |
